# Counter-ions that a name gives are not always drawn. Screen size: about 1,300 compounds; about 40 (3%) showed activity. The list shows a part of the results.
# Test system: Plasmodium falciparum NF54/iGP1_RE9H ulg8 stage V gametocytes
# Assay: gametocyte viability (luciferase signal relative to DMSO control) (% of DMSO control); higher = less gametocytocidal activity, active = 50 or less
# Details: exposure time: 72 h
# In short: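 In 96-well plates holding nanolitre spots of compound (10 mM DMSO stocks), NF54/iGP1_RE9Hulg8 stage V gametocytes from day 12 were added at ~2.5% gametocytemia and 3% hematocrit in medium with 0.5% Albumax II, giving single wells at 10 µM or 1 µM. Incubation lasted 72 h at 37 °C. Each 90 µl sample then received 10 µl D-luciferin (30 mg/ml) before luminescence reading on an IVIS Lumina II, and viability was normalized to the mean of DMSO vehicle wells on the same plate.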
SMILES,gametocyte viability (concentration: 1 µM),gametocyte viability (concentration: 10 µM)
CC(C)(S)[C@@H](N)C(=O)O [Penicillamine],inactive: 92.4,inactive: 93.1
Cn1c(=O)c2c(ncn2CC(=O)O)n(C)c1=O [Acefylline],inactive: 81.2,inactive: 93.5
C=C[C@H]1CN2CC[C@H]1C[C@@H]2[C@@H](O)c1ccnc2ccc(OC)cc12 [Quinidine hydrochloride monohydrate],inactive: 71.2,inactive: 51.7
Cc1cccc(C)c1NC(=O)C1CCCCN1C (stereo unspecified) [Mepivacaine hydrochloride],inactive: 88.3,inactive: 88.5
Cc1ncc([N+](=O)[O-])n1CC(O)CCl (stereo unspecified) [Ornidazole],inactive: 78.7,inactive: 82.6
CN1C(C(=O)Nc2ccccn2)=C(O)c2sccc2S1(=O)=O [Tenoxicam],inactive: 92,inactive: 88.2
CS(=O)(=O)c1ccc(C2=C(c3ccccc3)C(=O)OC2)cc1 [Rofecoxib],inactive: 85.4,inactive: 81.7
Cn1c(=O)c2[nH]cnc2n(C)c1=O [Aminophylline],inactive: 85.5,inactive: 81.6
Cc1[nH]c(=O)c(C#N)cc1-c1ccncc1 [Milrinone],inactive: 81,inactive: 82.1
Cc1ccnc2c1NC(=O)c1cccnc1N2C1CC1 [Nevirapine],inactive: 79.7,inactive: 74.2
CN(C)CCC=C1c2ccccc2CCc2ccccc21 [Amitryptiline hydrochloride],inactive: 86.7,inactive: 86.2
COc1cc(Cc2cnc(N)nc2N)cc(OC)c1OC [Trimethoprim],inactive: 83.9,inactive: 89.1
COc1cc(-c2ccc(N=Nc3ccc4c(S(=O)(=O)O)cc(S(=O)(=O)O)c(N)c4c3O)c(OC)c2)ccc1N=Nc1ccc2c(S(=O)(=O)O)cc(S(=O)(=O)O)c(N)c2c1O [Chicago sky blue 6B],inactive: 80.1,inactive: 82.1
CCN(CC)CCOC(=O)C(c1ccccc1)C1CCCCC1 (stereo unspecified) [Drofenine hydrochloride],inactive: 84,inactive: 84.8
COCC1=C(C(=O)OC(C)OC(=O)OC(C)C)N2C(=O)[C@@H](NC(=O)/C(=N\OC)c3csc(N)n3)[C@H]2SC1 (stereo partly specified) [Cefpodoxime proxetil],inactive: 89.6,inactive: 84.3
COc1cc2c(cc1OC)C(=O)C(CC1CCN(Cc3ccccc3)CC1)C2 (stereo unspecified) [Donepezil hydrochloride],inactive: 78.9,inactive: 75.6
CCCCC(CC)CN1CN(CC(CC)CCCC)CC(C)(N)C1 (stereo unspecified) [Hexetidine],inactive: 90.8,inactive: 102
O=C(CCCN1CCC(O)(c2ccc(Br)cc2)CC1)c1ccc(F)cc1 [Bromperidol],inactive: 87.4,inactive: 92.3
CO[C@@]1(NC(=O)Cc2cccs2)C(=O)N2C(C(=O)O)=C(COC(N)=O)CS[C@@H]21 [Cefoxitin sodium salt],inactive: 85.9,inactive: 81.1

SMILES,gametocyte viability (concentration: 1 µM),gametocyte viability (concentration: 10 µM)
CC(=O)c1ccc2c(c1)N(CCCN1CCC(CCO)CC1)c1ccccc1S2 [Piperacetazine],inactive: 79.4,inactive: 80.8
N=C(N)NC(=O)c1nc(Cl)c(N)nc1N [Amiloride hydrochloride dihydrate],inactive: 91.4,inactive: 84.3
O=C1NCN(c2ccccc2)C12CCN(CCCC(c1ccc(F)cc1)c1ccc(F)cc1)CC2 [Fluspirilen],inactive: 88.5,inactive: 88.4
CC(C)(C)C(=O)OCOC(=O)[C@@H]1N2C(=O)[C@@H](NC(=O)[C@H](N)c3ccccc3)[C@H]2SC1(C)C [Pivampicillin],inactive: 87.7,inactive: 83.6
CCOc1ccccc1OCC1CNCCO1 (stereo unspecified) [Viloxazine hydrochloride],inactive: 96.7,inactive: 99.3
CC[C@H]1OC(=O)[C@H](C)[C@@H](O[C@H]2C[C@@](C)(OC)[C@@H](O)[C@H](C)O2)[C@H](C)[C@@H](O[C@@H]2O[C@H](C)C[C@H](N(C)C)[C@H]2O)[C@](C)(OC)C[C@@H](C)C(=O)[C@H](C)[C@@H](O)[C@]1(C)O [Clarithromycin],inactive: 92.8,inactive: 91
N[C@@H]1CCCCN(c2c(F)cc3c(=O)c(C(=O)O)cn(C4CC4)c3c2Cl)C1 [Besifloxacin hydrochloride],inactive: 82.7,inactive: 80.5
CCCCC1=NC2(CCCC2)C(=O)N1Cc1ccc(-c2ccccc2-c2nnn[nH]2)cc1 [Irbesartan],inactive: 80.9,inactive: 76.9
CCCCOC(=O)c1ccc(N)cc1 [Butamben],inactive: 85.3,inactive: 86.3
CCOC(=O)[C@H](CCc1ccccc1)N[C@@H](C)C(=O)N1[C@H](C(=O)O)C[C@@H]2CCC[C@@H]21 [Ramipril],inactive: 82.9,inactive: 86.2
CCOc1ccc2c(c1)C(C)=CC(C)(C)N2 [Ethoxyquin],inactive: 84.2,inactive: 83.1
NC(=O)c1ncn([C@@H]2O[C@H](CO)[C@@H](O)[C@H]2O)n1 [Ribavirin],inactive: 92.6,inactive: 87.4
CC(C)COCC(CN(Cc1ccccc1)c1ccccc1)N1CCCC1 (stereo unspecified) [Bepridil hydrochloride],inactive: 81.5,inactive: 107
CN[C@H](CC(C)C)C(=O)N[C@H]1C(=O)N[C@@H](CC(N)=O)C(=O)N[C@H]2C(=O)N[C@H]3C(=O)N[C@H](C(=O)N[C@H](C(=O)O)c4cc(O)cc(O)c4-c4cc3ccc4O)[C@H](O)c3ccc(c(Cl)c3)Oc3cc2cc(c3O[C@@H]2O[C@H](CO)[C@@H](O)[C@H](O)[C@H]2O[C@H]2C[C@](C)(N)[C@H](O)[C@H](C)O2)Oc2ccc(cc2Cl)[C@H]1O [Vancomycin hydrochloride],inactive: 82.4,inactive: 88.8
CNS(=O)(=O)Cc1ccc2[nH]cc(CCN(C)C)c2c1 [Sumatriptan succinate],inactive: 96.5,inactive: 90.6
NS(=O)(=O)c1cc2c(cc1Cl)N=CNS2(=O)=O [Chlorothiazide],inactive: 84.2,inactive: 89.1
COc1cc(C(=O)NS(=O)(=O)c2ccccc2C)ccc1Cc1cn(C)c2ccc(NC(=O)OC3CCCC3)cc12 [Zafirlukast],inactive: 92.7,inactive: 91
Cc1cc(C2CCCCC2)n(O)c(=O)c1 [Ciclopirox ethanolamine],inactive: 85.5,inactive: 86.8
NS(=O)(=O)c1cc(C(=O)O)c(NCc2ccco2)cc1Cl [Furosemide],inactive: 78.6,inactive: 87.7
